Experimental data published in the BET-seq Pho4 binding data (Le et al. 2018).
The other results are listed elsewhere or left out. These are noisy estimates, calculated here from bound and input reads.

These sequences were tested against T1, Pho4 (S. cerevisiae) (UniProt P07270) (assay: relative binding free energy (BET-seq); higher = weaker binding). Conditions: reference: library average.
T1 sequence: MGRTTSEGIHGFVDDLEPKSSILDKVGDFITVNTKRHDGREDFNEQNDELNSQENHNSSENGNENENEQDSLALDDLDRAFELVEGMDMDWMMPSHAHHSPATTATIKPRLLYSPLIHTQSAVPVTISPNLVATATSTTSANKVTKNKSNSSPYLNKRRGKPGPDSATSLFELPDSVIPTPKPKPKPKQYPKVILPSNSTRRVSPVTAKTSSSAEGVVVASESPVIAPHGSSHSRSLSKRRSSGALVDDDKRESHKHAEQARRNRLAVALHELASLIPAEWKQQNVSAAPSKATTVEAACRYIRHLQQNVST

Sequence | relative binding free energy
TAGGGCACGTGTACGG | -0.27 kcal/mol
TGGTACACGTGATCGT | 0.04 kcal/mol
TTTAACACGTGCTGAT | -0.05 kcal/mol
AGTGTCACGTGGTTAC | -0.18 kcal/mol
GCGAGCACGTGTATGG | -0.12 kcal/mol
GTTGGCACGTGATCTT | -0.04 kcal/mol
TTTAGCACGTGATAGT | 0.1 kcal/mol
ATTTGCACGTGTTTCG | 0.03 kcal/mol
GTGATCACGTGTTTTG | 0.13 kcal/mol
GTGGTCACGTGAAGGC | 0.21 kcal/mol
TAACTCACGTGTGAGT | 0.34 kcal/mol
CTTGGCACGTGCTTAT | -0.05 kcal/mol
TTATGCACGTGCGTGT | -0.1 kcal/mol
GAGGACACGTGGGCGG | -0.14 kcal/mol
TGCGTCACGTGGCGTG | 0.06 kcal/mol
GAAATCACGTGGGGTC | 0.18 kcal/mol
ATAGTCACGTGGTCGA | -0.09 kcal/mol
TCTGGCACGTGGTGTA | -0.22 kcal/mol
CTATGCACGTGGATTT | 0.03 kcal/mol
GCGGTCACGTGCGTTG | 0.09 kcal/mol
TTGAACACGTGGATTC | 0.18 kcal/mol
TGCTGCACGTGGTTAA | -0.13 kcal/mol
ATTGTCACGTGACAGA | 0.26 kcal/mol
GTTGACACGTGGATCT | 0.25 kcal/mol
TATGTCACGTGGTATG | 0 kcal/mol

Sequence | relative binding free energy
GGGAGCACGTGGTCTG | -0.15 kcal/mol
GCGGACACGTGAAGGT | 0.37 kcal/mol
CTTGGCACGTGTACGG | -0.01 kcal/mol
GGCGGCACGTGTGTGA | 0.03 kcal/mol
TTAGGCACGTGTATTT | 0.07 kcal/mol
TGCTGCACGTGTACGT | -0.01 kcal/mol
AGGGACACGTGAGGTT | 0.28 kcal/mol
TTGTGCACGTGTAGCA | 0.02 kcal/mol
CATTACACGTGGTGAG | 0.22 kcal/mol
GGGGACACGTGTGACG | 0.11 kcal/mol
TTGGGCACGTGGACAT | -0.23 kcal/mol
TTGGTCACGTGCTCTT | 0 kcal/mol
GTTTACACGTGGGTAG | 0.05 kcal/mol
TGGGGCACGTGTCGCA | -0.08 kcal/mol
AGGTGCACGTGAATGC | 0.06 kcal/mol
ACTATCACGTGGAGTG | 0.13 kcal/mol
GTGTACACGTGTCGGC | 0.16 kcal/mol
CGGGACACGTGTAAGT | 0.1 kcal/mol
GGTTACACGTGGAGGG | 0.12 kcal/mol
GTTATCACGTGGTAAC | 0.28 kcal/mol
GGGTTCACGTGTATGA | 0.37 kcal/mol
TTGTTCACGTGTTGAG | 0.26 kcal/mol
ATTAACACGTGGGATT | 0.01 kcal/mol
ATCTTCACGTGTATTG | 0.11 kcal/mol
GTTTCCACGTGAAGGG | 0.38 kcal/mol

Sequence | relative binding free energy
TGTCACACGTGTTATA | 0.07 kcal/mol
TAGGGCACGTGAATGG | 0.2 kcal/mol
TGGATCACGTGATGGC | 0.14 kcal/mol
TAGCGCACGTGTTTGG | -0.07 kcal/mol
ACATGCACGTGTGGGA | 0.06 kcal/mol
AGTTGCACGTGATGGC | 0.27 kcal/mol
CTTGACACGTGAGGCT | 0.28 kcal/mol
GGTTTCACGTGACAGG | 0.28 kcal/mol
GTTGACACGTGTAGAG | 0.19 kcal/mol
CTTTTCACGTGTTTGC | 0.23 kcal/mol
CTGGGCACGTGAAAAT | 0.28 kcal/mol
TTGTACACGTGTGATC | 0.21 kcal/mol
TAGGACACGTGATATT | 0.05 kcal/mol
GGAGCCACGTGAGAGG | 0.19 kcal/mol
TTGAGCACGTGTGTGC | -0.02 kcal/mol
TAATGCACGTGTGATG | 0.05 kcal/mol
TTTAACACGTGAGGCT | 0.41 kcal/mol
CGTGGCACGTGTGGAA | -0.02 kcal/mol
GTTATCACGTGGTGTC | 0.09 kcal/mol
AGCGGCACGTGTGGAT | -0.12 kcal/mol
TGTTTCACGTGTTAAT | 0.24 kcal/mol
GACGACACGTGTTTGG | 0.16 kcal/mol
AGTCACACGTGAGGTT | 0.23 kcal/mol
AGATCCACGTGGTGGT | -0.03 kcal/mol
GGGGCCACGTGGCTCG | 0.02 kcal/mol

Sequence | relative binding free energy
GTTTACACGTGTTCGT | 0.07 kcal/mol
TGGATCACGTGTCGTA | 0.16 kcal/mol
TGTGGCACGTGACGTG | 0 kcal/mol
AGCTTCACGTGTATTT | 0.18 kcal/mol
GGCATCACGTGCAGGG | 0.22 kcal/mol
TGGAGCACGTGTGTGA | -0.02 kcal/mol
TCAGGCACGTGAGTAG | 0.09 kcal/mol
GAGTTCACGTGGTTGT | 0.28 kcal/mol
TGGTACACGTGTGGCA | 0.18 kcal/mol
AGATGCACGTGGGGTT | -0.11 kcal/mol
GCGGTCACGTGTCGTT | 0.16 kcal/mol
TAGGTCACGTGGCGGT | 0.08 kcal/mol
TGTACCACGTGGGGGT | -0.31 kcal/mol
TAGATCACGTGGTATT | 0.2 kcal/mol
TATTTCACGTGTTTGT | 0.31 kcal/mol
GGTTACACGTGATTCG | 0.25 kcal/mol
TATGTCACGTGTGATA | 0.17 kcal/mol
TCGATCACGTGCGTGG | 0.16 kcal/mol
TGTGACACGTGACGGG | 0.15 kcal/mol
TGATTCACGTGGATGA | 0.24 kcal/mol
TGGTGCACGTGGTATC | -0.18 kcal/mol
GTGGTCACGTGGTAGG | 0.14 kcal/mol
AATAGCACGTGTGGTT | -0.02 kcal/mol
AGTGGCACGTGCGAGG | -0.12 kcal/mol
GGTCACACGTGTTGTG | 0.15 kcal/mol

Sequence | relative binding free energy
AGTGTCACGTGATAAA | 0.22 kcal/mol
GTAAGCACGTGGTTGT | -0.03 kcal/mol
CTCGTCACGTGGTGGG | 0.02 kcal/mol
AAAGCCACGTGGGTGT | -0.14 kcal/mol
TAATGCACGTGGGGTA | -0.26 kcal/mol
CTCATCACGTGGGGTG | -0.12 kcal/mol
GCTTGCACGTGGTAGG | -0.06 kcal/mol
AATGGCACGTGAATAG | 0.25 kcal/mol
GGACGCACGTGTTAAT | 0.12 kcal/mol
GGTGGCACGTGATGTT | 0.09 kcal/mol
TTGCTCACGTGGGTCT | 0.03 kcal/mol
AGCTTCACGTGTGGTG | 0.23 kcal/mol
TTGATCACGTGGCTAG | 0.05 kcal/mol
ATATGCACGTGTGAGA | 0.12 kcal/mol
ATGGCCACGTGTGGGA | -0.03 kcal/mol
CTTGTCACGTGATGTG | 0.23 kcal/mol
TGTTTCACGTGGCGAA | 0.21 kcal/mol
CTTTGCACGTGGGCGT | -0.16 kcal/mol
TGGGTCACGTGCAGGT | 0.16 kcal/mol
GGTATCACGTGAGTTC | 0.29 kcal/mol
CTGATCACGTGGCGTA | 0.18 kcal/mol
TATATCACGTGCAATG | 0.18 kcal/mol
ACTGACACGTGTTGGT | 0.07 kcal/mol
GGGTCCACGTGCTGGG | 0 kcal/mol
TATGTCACGTGCGTGC | -0.12 kcal/mol

Sequence | relative binding free energy
GGGGCCACGTGGTTGT | -0.08 kcal/mol
TATAGCACGTGCCGGG | -0.2 kcal/mol
TAAGTCACGTGTAGGG | 0.08 kcal/mol
GTTGGCACGTGATACG | -0.06 kcal/mol
GGGTTCACGTGCGGCT | 0.36 kcal/mol
TCTGTCACGTGGGTAG | -0.09 kcal/mol
GTTGGCACGTGCGCGG | -0.14 kcal/mol
GTTATCACGTGTCGGG | 0.12 kcal/mol
GAGTACACGTGTGTGG | 0.12 kcal/mol
CGGGGCACGTGGGAAT | -0.14 kcal/mol
TTGGTCACGTGACCGT | 0.15 kcal/mol
TGTCACACGTGTGAGA | 0.23 kcal/mol
GTTGTCACGTGTCGGC | 0.11 kcal/mol
TGTAACACGTGCCGGT | -0.04 kcal/mol
ATAGTCACGTGTGGAC | 0.21 kcal/mol
GGTAGCACGTGGTCGT | -0.19 kcal/mol
TTTGCCACGTGGGGAA | -0.16 kcal/mol
TGGTACACGTGGACGT | 0.15 kcal/mol
AGGGGCACGTGCCTGT | -0.25 kcal/mol
GTTTGCACGTGATTCT | 0.15 kcal/mol
GGGCTCACGTGTGTCG | 0.22 kcal/mol
